The list shows a part of the results. The energies were worked out here from pooled read counts, against the library average; single values are noisy.
molecular target: T1, Pho4 (S. cerevisiae) (UniProt P07270); test: relative binding free energy (BET-seq); higher = weaker binding; conditions: reference: library average
T1 sequence: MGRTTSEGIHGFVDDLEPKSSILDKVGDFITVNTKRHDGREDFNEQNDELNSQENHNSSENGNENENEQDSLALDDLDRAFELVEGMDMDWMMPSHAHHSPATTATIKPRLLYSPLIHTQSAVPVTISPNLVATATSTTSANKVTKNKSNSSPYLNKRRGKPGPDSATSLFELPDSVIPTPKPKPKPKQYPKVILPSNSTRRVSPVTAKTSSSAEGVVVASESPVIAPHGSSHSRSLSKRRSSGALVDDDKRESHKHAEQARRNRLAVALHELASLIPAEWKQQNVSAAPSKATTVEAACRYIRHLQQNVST

| Sequence | relative binding free energy [kcal/mol] |
| --- | --- |
| AGGGTCACGTGATAGC | 0.27 |
| TCGATCACGTGTGATA | 0.3 |
| GGGAGCACGTGGACAG | -0.12 |
| AACGACACGTGTTGTG | 0.05 |
| AGTTTCACGTGGCGCA | 0.27 |
| GCGTGCACGTGACGGG | 0.09 |
| TTACGCACGTGGTTTA | -0.19 |
| GCTGGCACGTGTAGTT | 0.04 |
| GTCTTCACGTGGTATG | 0.11 |
| GTAATCACGTGGCAGG | 0.23 |
| TGTGTCACGTGATACT | 0.12 |
| TGAGCCACGTGTAGGT | -0.08 |
| TAGTGCACGTGAATCA | 0.48 |
| AAATACACGTGGCGTT | 0.1 |
| TTAATCACGTGAGCGG | 0.35 |
| GGTATCACGTGGGTGG | 0.03 |
| GGAATCACGTGGGCTG | -0.12 |
| CGGGGCACGTGAGCTG | -0.05 |
| TGTTGCACGTGAACAG | 0.15 |
| AGGGGCACGTGAGCTT | 0.02 |
| GTTAACACGTGGGTTC | -0.08 |
| TGGTACACGTGTACTT | 0.16 |
| TTTAGCACGTGTCGTG | -0.15 |

| Sequence | relative binding free energy [kcal/mol] |
| --- | --- |
| GTATTCACGTGCTTGA | 0.29 |
| GGAAACACGTGGTGTA | -0.09 |
| GGAAGCACGTGGAAGG | -0.03 |
| TATTACACGTGGTGGC | 0.11 |
| TTCTACACGTGCTTGT | 0.07 |
| CGGTGCACGTGCGGTA | -0.04 |
| GTGGGCACGTGGGTGC | -0.2 |
| CGTTACACGTGTAGTT | 0.15 |
| TAGAGCACGTGGGTGC | -0.27 |
| TTTTCCACGTGGTTAT | -0.02 |
| CTTGGCACGTGTGCTT | -0.14 |
| CGTAGCACGTGTGGCG | 0 |
| GTGAGCACGTGGGGGG | -0.16 |
| TCGGACACGTGTGGGA | 0.03 |
| TGGTTCACGTGCAGTG | 0.31 |
| TTTATCACGTGGCTGC | 0.22 |
| AATAACACGTGGTAGG | -0.03 |
| AGGCGCACGTGTGTAG | -0.1 |
| AGCTGCACGTGAGGGG | 0.2 |
| TTAGGCACGTGAGAGC | 0.16 |
| GAGGACACGTGTATTT | 0.16 |
| GGGGCCACGTGGGGTT | -0.19 |
| TGTAACACGTGTTTTG | 0.04 |

| Sequence | relative binding free energy [kcal/mol] |
| --- | --- |
| TGGGGCACGTGCGGGT | -0.17 |
| TGGGGCACGTGGTTTC | -0.06 |
| ATTTGCACGTGAGAGA | 0.2 |
| TTACACACGTGATTTG | 0.21 |
| GCGTACACGTGGGGTA | -0.09 |
| GGGCACACGTGGGAGA | 0.05 |
| TGTGTCACGTGAAGTA | 0.32 |
| AGTTTCACGTGAGGGT | 0.41 |
| TTGGGCACGTGGCTTG | -0.15 |
| AATGTCACGTGTTGGT | 0 |
| TGGATCACGTGTGGTC | 0.19 |
| AGAAGCACGTGCGTTG | -0.14 |
| TATTGCACGTGACATG | 0.06 |
| CGTGGCACGTGTAATT | -0.02 |
| GGGCTCACGTGGAAGT | 0.33 |
| CACGGCACGTGTGGTG | 0.09 |
| TCTCTCACGTGTTGGG | 0.04 |
| TAGGACACGTGTGTTC | 0.12 |
| TTGATCACGTGGGTAT | -0.09 |
| GTGGCCACGTGGGGCC | -0.21 |
| CGCGTCACGTGGGGGA | -0.15 |
| GTAATCACGTGCGGAT | 0.27 |
| TTATGCACGTGGTACA | -0.2 |

| Sequence | relative binding free energy [kcal/mol] |
| --- | --- |
| GTGCTCACGTGGCGGT | 0.15 |
| TTTATCACGTGTATTA | 0.14 |
| AGGTTCACGTGGATAT | 0.3 |
| TATGTCACGTGGGCAG | -0.05 |
| TATATCACGTGCGGTT | 0.07 |
| AGGAGCACGTGGGAGC | -0.16 |
| ATTAACACGTGTGGCT | 0.08 |
| GGATTCACGTGTAGTC | 0.36 |
| TGCATCACGTGGAGGT | 0.1 |
| ATGTTCACGTGAGAAG | 0.35 |
| ATTCACACGTGGTTGA | 0.14 |
| TAGTACACGTGTTGTT | -0.02 |
| TGCTGCACGTGCTGTT | -0.11 |
| CTTGTCACGTGAGTGA | 0.24 |
| TTTGGCACGTGTCATG | 0.04 |
| ATTAACACGTGGCGGT | -0.03 |
| TTTGACACGTGTTAGG | 0.08 |
| CTATGCACGTGGTATA | -0.11 |
| ATGGGCACGTGATGTC | 0.01 |
| GTTTTCACGTGTAGAT | 0.39 |
| GGGTGCACGTGTTGAA | 0.02 |
| TGTAACACGTGGGCTT | -0.2 |

From the BET-seq Pho4 binding data (Le et al. 2018)
